Assay results reported in PubChem BioAssay AID1768 (National Center for Advancing Translational Sciences (NCATS), 2009).
Values joined by “and” are separate entries in the source; they are usually repeats but may differ in a detail not shown here. Identical values can stand only once. Screen size: about 270,000 compounds; about 620 (0.23%) were called active. The shares of active, inactive and inconclusive entries below differ from those in the screen. Calls follow the shape of the dose curve; as a rule, active = well fitted inhibition curve with a large enough effect in the polarisation, with a control signal flat (not every such curve was filed as active); inconclusive = small, poorly fitted or top-dose-only effect, or effect the other way, or a change in a side signal; inactive = no such curve, though single readings can be large or run the other way; the % refers to the polarisation. Where the call is inconclusive, the potency comes from a doubtful curve fit. “Side channel” marks fits to a control or component signal instead of the main read-out.
For FP activity change, negative = inhibition in this document: % of control where 0% means no effect.
Potency is read from the fitted curve at half-maximal effect; tags tell the direction and shape of the fitted curve or compound fluorescence and quenching.

The molecules below were run against Menin (Homo sapiens) (UniProt O00255) (assay: qHTS Assay for Inhibitors Targeting the Menin-MLL Interaction in MLL Related Leukemias: Competition With Texas Red Labeled MLL-derived Mutant Peptide). Details: fluorescence polarization; FP activity change, negative = inhibition: at 61.6 µM (top of the series).
Sequence of UniProt O00255 (O00255 whole entry, looked up): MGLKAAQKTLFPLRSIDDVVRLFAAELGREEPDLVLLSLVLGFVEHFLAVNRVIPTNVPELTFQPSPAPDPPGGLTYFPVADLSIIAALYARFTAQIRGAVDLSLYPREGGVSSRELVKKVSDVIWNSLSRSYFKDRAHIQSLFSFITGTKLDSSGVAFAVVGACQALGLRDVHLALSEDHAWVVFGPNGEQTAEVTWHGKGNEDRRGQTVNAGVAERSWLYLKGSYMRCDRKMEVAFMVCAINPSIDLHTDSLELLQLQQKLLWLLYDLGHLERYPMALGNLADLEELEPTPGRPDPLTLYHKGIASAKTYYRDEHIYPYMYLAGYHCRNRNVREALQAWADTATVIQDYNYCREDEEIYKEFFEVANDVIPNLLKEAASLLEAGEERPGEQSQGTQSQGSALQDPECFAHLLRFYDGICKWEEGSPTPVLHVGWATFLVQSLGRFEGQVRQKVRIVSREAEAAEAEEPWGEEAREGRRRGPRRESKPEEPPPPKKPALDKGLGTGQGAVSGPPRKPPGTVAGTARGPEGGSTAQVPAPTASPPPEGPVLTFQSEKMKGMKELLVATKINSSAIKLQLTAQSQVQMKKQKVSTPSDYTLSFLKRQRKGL
`CC(C)CCn1c(CN2CCOCC2)nc2c1c(=O)n(C)c(=O)n2C` was tested, and the Potency was inconclusive: 39.8 µM [inhibitor, single point].
In the case of `O=c1cnnc(Nc2ccc(Nc3ccccc3)cc2)[nH]1`, the Potency is reported as inconclusive: 11.2 µM [quencher, side channel, partial curve].
`C/C(=N\NC(=O)c1ccccc1Cl)c1ccccn1` was tested, and the Potency was inconclusive: 31.6 µM [inhibitor, single point].
In the case of `O=C1/C(=C\c2cccs2)Sc2ccc3ccccc3c21`, the Potency is reported as inconclusive: 10 µM [quencher, side channel, partial curve].
In the case of `CCNC(=S)N(CCCN(C)C)Cc1cc2cc3c(cc2[nH]c1=O)OCCO3`, the Potency is reported as inconclusive: 5.62 µM [quencher, side channel, full curve, poor fit].
`Cc1noc(C)c1-c1nccc(NC2CC2)n1` was tested, and the “FP activity change, negative = inhibition” value was inactive: -0.921%.
For `Cc1ccc(C)c(OC(C)C(=O)Nc2ccc(S(=O)(=O)Nc3nccs3)cc2)c1` (centres undefined), the Potency was inconclusive: 25.1 µM [quencher, side channel, partial curve].
`Cc1cc(C)c(-n2c(SCC(=O)N3CCOCC3)n[nH]c2=O)c(C)c1` was tested, and the Potency was inconclusive: 39.8 µM [inhibitor, single point].
In the case of `c1ccc2sc(SSc3nc4ccccc4s3)nc2c1`, the “FP activity change, negative = inhibition” value is reported as inactive: -1.88%.
In the case of `COc1ccccc1C(=O)Nc1ccnn1C1CCN(Cc2ccccc2OCCO)CC1`, the Potency is reported as inconclusive: 28.2 µM [inhibitor, single point].
In the case of `COc1ccc(/C=N/Nc2nc(-c3cccc(S(=O)(=O)N4CCCC4)c3)cs2)c(OC)c1`, the Potency is reported as inconclusive: 15.8 µM [quencher, side channel, partial curve].
For `O=C(Cc1ccc(Cl)cc1)Oc1cccc2cccnc12`, the “FP activity change, negative = inhibition” value was inactive: 0.212%.
With `COC(=O)C1(C(=O)OC)C/C=C\Cc2ccccc2[C@@H]1C[N+](=O)[O-]` the Potency was “inactive and inconclusive: 6.31 µM [quencher, side channel, single point]”.
`Cc1ccc(N(Cc2cc(=O)[nH]c3ccccc23)C(=O)CCl)c(C)c1` was tested, and the Potency was inconclusive: 22.4 µM [fluorescent, side channel, single point].
For `CCOC(=O)C1(Cc2ccccc2C)CCCN(C(=O)c2cc(CC)nn2C)C1` (centres undefined), the Potency was inconclusive: 20 µM [fluorescent, side channel, single point].
For `Cc1nn(C)c(C(=O)N/N=C/c2cccc3ccccc23)c1Cl`, the “FP activity change, negative = inhibition” value was inactive: -2.32%.
With `N#Cc1c(Cl)nsc1NN` the Potency was inconclusive: 39.8 µM [quencher, side channel, single point].
`CCc1nnc(NC(=O)c2cccc(C(=O)Nc3nnc(CC)s3)n2)s1` was tested, and the “FP activity change, negative = inhibition” value was inactive: -6.09%.
`Cn1c(=O)[nH]c(=O)c2c1nc(N1CCCCCC1)n2CCCSc1nc2ccccc2o1` was tested, and the Potency was inconclusive: 39.8 µM [inhibitor, partial curve].
`CCOC(=O)c1c(C2COc3ccccc3O2)csc1N` (centres undefined) was tested, and the Potency was inconclusive: 25.1 µM [quencher, side channel, partial curve].
In the case of `O=C(Nc1nc2c(ccc3ccccc32)s1)c1ccco1`, the Potency is reported as inconclusive: 14.1 µM [quencher, side channel, partial curve].
In the case of `O=C(O)c1cc(O)c2c(c1)C(=O)c1cccc(O)c1C2=O`, the Potency is reported as “inactive and inconclusive: 12.6 µM [quencher, side channel, partial curve]”.
For `O=C1C=CC(=O)N1c1ccc(OC(F)F)cc1`, the Potency was inconclusive: 22.4 µM [quencher, side channel, single point].
In the case of `O=C(c1ccc(F)cc1)N1CCOCC1`, the “FP activity change, negative = inhibition” value is reported as inactive: -0.0664%.
In the case of `CC(C)CCNC(=O)c1ccc2c(c1)ncn2C1CCCCC1`, the Potency is reported as inconclusive: 35.5 µM [fluorescent, side channel, single point].
For `O=C(Nc1ncc([N+](=O)[O-])s1)c1cccc([N+](=O)[O-])c1`, the Potency was inconclusive: 28.2 µM [quencher, side channel, partial curve].
For `Cc1cc(NC(=O)c2ccccc2)ncc1NC(=O)c1cccs1`, the Potency was inconclusive: 22.4 µM [quencher, side channel, single point].
With `Cc1ccc(/C=N/Nc2nncc(-c3ccccc3)n2)o1` the Potency was inconclusive: 31.6 µM [quencher, side channel, single point].
`CCOC(=O)N1CCN(S(=O)(=O)c2ccc(C)c([N+](=O)[O-])c2)CC1` was tested, and the Potency was inconclusive: 2.82 µM [inhibitor, full curve, poor fit].
`COc1ccccc1C1CC(c2ccccc2)=NN1C(=S)Nc1ccccc1` (centres undefined) was tested, and the Potency was inconclusive: 6.31 µM [fluorescent, full curve].
`COc1ccc(OCC(O)CN2CCC(CN3C(=O)c4cccc5cccc(c45)C3=O)CC2)cc1` (centres undefined) was tested, and the “FP activity change, negative = inhibition” value was inactive: -1.58%.
In the case of `COc1ccc(-c2cccc(C(=O)Nc3ccccc3C)c2)cc1`, the Potency is reported as inconclusive: 25.1 µM [inhibitor, single point].
`O=C(C1=C[C@H](c2ccccc2)C[C@H](OCc2ccc(CO)cc2)O1)N1CCN(Cc2ccccc2)CC1` was tested, and the Potency was inconclusive: 2.24 µM [fluorescent, side channel, full curve].
In the case of `Fc1ccc(C(c2ccc(F)cc2)N2CCN(C/C=C/c3ccccc3)CC2)cc1`, the Potency is reported as inconclusive: 3.98 µM [fluorescent, side channel, full curve] and inconclusive: 2.82 µM [fluorescent, side channel, full curve, poor fit].
For `O=C(Cn1cnc2c(nnn2Cc2ccccc2)c1=O)c1ccc(Cl)cc1`, the Potency was inconclusive: 39.8 µM [inhibitor, single point].
With `COc1ccc(C2c3sc(=O)[nH]c3SC3C(=O)N(c4ccccc4)C(=O)C32)cc1` (centres undefined) the Potency was inconclusive: 14.1 µM [quencher, side channel, partial curve].
For `Cc1ccc(O)c(Nc2c3ccccc3nc3ccccc23)c1`, the Potency was active: 12.6 µM.
With `COc1ccc(CCC(C)NC2C3CC4CC(C3)CC2C4)cc1` (centres undefined) the Potency was inconclusive: 39.8 µM [inhibitor, single point].
For `Clc1ccc(-n2ncc3c(NCC4CCCO4)ncnc32)cc1` (centres undefined), the Potency was inconclusive: 25.1 µM [quencher, side channel, single point].
`Cc1ccc(OCC(=O)N/N=C\c2cn(C)c3ccccc23)c([N+](=O)[O-])c1` was tested, and the Potency was inconclusive: 8.91 µM [inhibitor, single point].
With `CN(C)c1cccc(C(=O)OC(C(=O)Nc2ccc([N+](=O)[O-])cc2Br)c2ccccc2)c1` (centres undefined) the Potency was inconclusive: 20 µM [quencher, side channel, partial curve].
In the case of `Cc1cccc(C=Nc2ccc3c4c(cccc24)CC3)c1O`, the Potency is reported as inconclusive: 39.8 µM [quencher, side channel, single point].
`COc1ccc(/C=C2/C(=O)N(c3ccccc3)N=C2C)cc1Br` was tested, and the Potency was inconclusive: 28.2 µM [quencher, side channel, partial curve].
With `CCOC(=O)Cc1nnc(NC(=O)COc2ccc(OC)cc2)s1` the Potency was inconclusive: 12.6 µM [quencher, side channel, partial curve].
With `O=C(c1cnn2c(C(F)(F)F)cc(-c3ccccc3)nc12)N1CCCCC1c1cccnc1` (centres undefined) the Potency was inconclusive: 2.82 µM [fluorescent, side channel, full curve, poor fit].
With `COc1ccc(-c2nc(-c3ccc(NC(=O)c4ccncc4)cc3)no2)cc1OC` the “FP activity change, negative = inhibition” value was inactive: 14.1%.
`Cc1ccccc1Nc1nnc(SCC(=O)NCc2ccco2)s1` was tested, and the Potency was inconclusive: 39.8 µM [quencher, side channel, single point].
For `O=C(Nc1ccc(Cl)c(Cl)c1)c1cccc(S(=O)(=O)NCc2cccnc2)c1`, the Potency was inconclusive: 20 µM [quencher, side channel, single point].
In the case of `COc1ccc(CCn2c(=S)[nH]c3cc(C(=O)N4CCOCC4)ccc3c2=O)cc1OC`, the Potency is reported as inconclusive: 39.8 µM [fluorescent, side channel, single point].
With `O=C(O)c1cccc(-n2cccc2/C=N/O)c1` the “FP activity change, negative = inhibition” value was inactive: 9.74%.
`COc1cc(/C=N/NC(=O)c2ccc(C)nc2)cc([N+](=O)[O-])c1O` was tested, and the Potency was inconclusive: 35.5 µM [quencher, side channel, single point].
`N#C/C(=C\c1ccc(N2CCCCC2)o1)C(=O)Nc1cccc(Br)c1` was tested, and the Potency was inconclusive: 3.98 µM [quencher, side channel, full curve].
For `O=C(CCC(=O)c1ccc(F)cc1)Nc1cccnc1`, the “FP activity change, negative = inhibition” value was inactive: -0.543%.
With `COc1ccc(-n2c(=S)[nH]c3cc(C(=O)NCc4ccco4)ccc3c2=O)c(OC)c1` the Potency was inconclusive: 22.4 µM [quencher, side channel, single point].
In the case of `Cc1ccc(S(=O)(=O)n2ccc3c(OCCOCCSCC(NC(=O)OC(C)(C)C)C(=O)O)cccc32)cc1` (centres undefined), the Potency is reported as inconclusive: 17.8 µM [quencher, side channel, single point].
With `N#Cc1ccc(/C=C\c2nccc3c2[nH]c2ccccc23)cc1` the “FP activity change, negative = inhibition” value was inactive: -12.1%.
For `CN(C)/[N+]([O-])=N/Oc1cc(O/[N+]([O-])=N/N2CCCC2CO)c([N+](=O)[O-])cc1[N+](=O)[O-]` (centres undefined), the “FP activity change, negative = inhibition” value was inactive: 21.1%.
`CC1(C)CC(=O)C2=C(C1)c1c(ccc3ccccc13)NC2c1cc([N+](=O)[O-])cc([N+](=O)[O-])c1O` (centres undefined) was tested, and the Potency was inconclusive: 10 µM [quencher, side channel, partial curve].
With `Cc1sc(NC(=O)c2sc3nc4c(C)cccc4cc3c2N)c(C#N)c1C` the Potency was inconclusive: 8.91 µM [quencher, side channel, partial curve].
